In the supplement of paper PMC8728848:
Some of the results follow.

Assays:
Experiment in all cases: glycan array binding signal (z-score within array); higher = stronger binding
Settings in all cases: glycan notation: IUPAC condensed, linker removed
Gal(b1-2)Gal = target: Gal(b1-2)Gal
Method in brief: (§1)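 Negative Z-scores can be read as non-binding. The Z-score is calculated within each array and then averaged across arrays of one protein sequence at different concentrations or buffers and across linkers. Arrays, 3228 in all, were curated from the Consortium for Functional Glycomics database and kept only where the protein sequence was available.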

Gal(b1-3)Gal = target: Gal(b1-3)Gal
Method in brief: as §1

Gal(b1-3)Gal(b1-4)GlcNAc = target: Gal(b1-3)Gal(b1-4)GlcNAc
Method in brief: as §1

Gal(b1-3)GalNAc = target: Gal(b1-3)GalNAc
Method in brief: as §1

[1] = target: Gal(b1-3)GalNAc(b1-3)Gal(a1-4)Gal(b1-4)Glc
Method in brief: as §1

[2] = target: Gal(b1-3)GalNAc(b1-4)Gal(b1-4)Glc
Method in brief: as §1

[3] = target: Gal(b1-3)GalNAc(b1-4)[Neu5Ac(a2-3)]Gal(b1-4)Glc
Method in brief: as §1

Gal(b1-3)GlcNAc = target: Gal(b1-3)GlcNAc
Method in brief: as §1

[4] = target: Gal(b1-3)GlcNAc(b1-2)Man(a1-3)[Gal(b1-3)GlcNAc(b1-2)Man(a1-6)]Man(b1-4)GlcNAc(b1-4)GlcNAc
Method in brief: as §1

[5] = target: Gal(b1-3)GlcNAc(b1-3)Gal(b1-3)GlcNAc
Method in brief: as §1

[6] = target: Gal(b1-3)GlcNAc(b1-3)Gal(b1-4)Glc
Method in brief: as §1

[7] = target: Gal(b1-3)GlcNAc(b1-3)Gal(b1-4)GlcNAc
Method in brief: as §1

[8] = target: Gal(b1-3)[Fuc(a1-4)]GlcNAc
Method in brief: as §1

[9] = target: Gal(b1-3)[Fuc(a1-4)]GlcNAc(b1-3)Gal(b1-3)[Fuc(a1-4)]GlcNAc
Method in brief: as §1

[10] = target: Gal(b1-3)[Fuc(a1-4)]GlcNAc(b1-3)Gal(b1-4)GlcNAc
Method in brief: as §1

[11] = target: Gal(b1-3)[Fuc(a1-4)]GlcNAc(b1-3)Gal(b1-4)[Fuc(a1-3)]GlcNAc
Method in brief: as §1

[12] = target: Gal(b1-3)[GlcNAc(b1-6)]GalNAc
Method in brief: as §1

[13] = target: Gal(b1-3)[Neu5Ac(a2-6)]GalNAc
Method in brief: as §1

[14] = target: Gal(b1-3)[Neu5Ac(a2-6)]GlcNAc(b1-6)Gal(b1-4)Glc
Method in brief: as §1

[15] = target: Gal(b1-3)[Neu5Ac(b2-6)]GalNAc
Method in brief: as §1

[16] = target: Gal(b1-4)GalNAc(a1-3)[Fuc(a1-2)]Gal(b1-4)GlcNAc
Method in brief: as §1

[17] = target: Gal(b1-4)GalNAc(b1-3)[Fuc(a1-2)]Gal(b1-4)GlcNAc
Method in brief: as §1

Gal(b1-4)Glc = target: Gal(b1-4)Glc
Method in brief: as §1

Gal(b1-4)Glc6S = target: Gal(b1-4)Glc6S
Method in brief: as §1

Gal(b1-4)GlcNAc = target: Gal(b1-4)GlcNAc
Method in brief: as §1

[18] = target: Gal(b1-4)GlcNAc(a1-6)Gal(b1-4)GlcNAc
Method in brief: as §1

[19] = target: Gal(b1-4)GlcNAc(b1-2)Man(a1-3)[Gal(b1-4)GlcNAc(b1-2)Man(a1-6)]Man(b1-4)GlcNAc(b1-4)GlcNAc
Method in brief: as §1

[20] = target: Gal(b1-4)GlcNAc(b1-3)Gal(b1-3)GlcNAc
Method in brief: as §1

[21] = target: Gal(b1-4)GlcNAc(b1-3)Gal(b1-4)Glc
Method in brief: as §1

[22] = target: Gal(b1-4)GlcNAc(b1-3)Gal(b1-4)GlcNAc
Method in brief: as §1

[23] = target: Gal(b1-4)GlcNAc(b1-3)Gal(b1-4)GlcNAc(b1-3)Gal(b1-4)GlcNAc
Method in brief: as §1

[24] = target: Gal(b1-4)GlcNAc(b1-3)Gal(b1-4)[Fuc(a1-3)]GlcNAc(b1-3)Gal(b1-4)[Fuc(a1-3)]GlcNAc
Method in brief: as §1

[25] = target: Gal(b1-4)GlcNAc(b1-3)GalNAc
Method in brief: as §1

[26] = target: Gal(b1-4)GlcNAc(b1-3)[Gal(b1-4)GlcNAc(b1-6)]Gal(b1-4)GlcNAc
Method in brief: as §1

[27] = target: Gal(b1-4)GlcNAc(b1-3)[GlcNAc(b1-6)]Gal(b1-4)GlcNAc
Method in brief: as §1

[28] = target: Gal(b1-4)GlcNAc(b1-6)Gal(b1-4)GlcNAc
Method in brief: as §1

[29] = target: Gal(b1-4)GlcNAc(b1-6)Gal(b1-4)GlcNAc(b1-6)GalNAc
Method in brief: as §1

[30] = target: Gal(b1-4)GlcNAc(b1-6)GalNAc
Method in brief: as §1

[31] = target: Gal(b1-4)GlcNAc(b1-6)[Gal(b1-3)]GalNAc
Method in brief: as §1

Gal3S(b1-3)GalNAc = target: Gal3S(b1-3)GalNAc
Method in brief: as §1

Gal3S(b1-3)GlcNAc = target: Gal3S(b1-3)GlcNAc
Method in brief: as §1

[32] = target: Gal3S(b1-3)[Fuc(a1-4)]GlcNAc
Method in brief: as §1

Gal3S(b1-4)Glc = target: Gal3S(b1-4)Glc
Method in brief: as §1

Gal3S(b1-4)Glc6S = target: Gal3S(b1-4)Glc6S
Method in brief: as §1

Gal3S(b1-4)GlcNAc = target: Gal3S(b1-4)GlcNAc
Method in brief: as §1

Gal3S(b1-4)GlcNAc6S = target: Gal3S(b1-4)GlcNAc6S
Method in brief: as §1

[33] = target: Gal3S(b1-4)[Fuc(a1-3)]Glc
Method in brief: as §1

Gal3S4S(b1-4)GlcNAc = target: Gal3S4S(b1-4)GlcNAc
Method in brief: as §1

Gal3S6S(b1-4)GlcNAc = target: Gal3S6S(b1-4)GlcNAc
Method in brief: as §1

Gal3S6S(b1-4)GlcNAc6S = target: Gal3S6S(b1-4)GlcNAc6S
Method in brief: as §1

Gal4S(b1-4)GlcNAc = target: Gal4S(b1-4)GlcNAc
Method in brief: as §1

Gal4S6S(b1-4)GlcNAc = target: Gal4S6S(b1-4)GlcNAc
Method in brief: as §1

Gal6S(b1-4)Glc = target: Gal6S(b1-4)Glc
Method in brief: as §1

Gal6S(b1-4)Glc6S = target: Gal6S(b1-4)Glc6S
Method in brief: as §1

Gal6S(b1-4)GlcNAc = target: Gal6S(b1-4)GlcNAc
Method in brief: as §1

Gal6S(b1-4)GlcNAc6S = target: Gal6S(b1-4)GlcNAc6S
Method in brief: as §1

GalNAc(a1-3)Gal = target: GalNAc(a1-3)Gal
Method in brief: as §1

GalNAc(a1-3)GalNAc = target: GalNAc(a1-3)GalNAc
Method in brief: as §1

GalNAc(b1-3)Gal = target: GalNAc(b1-3)Gal
Method in brief: as §1

[34] = target: GalNAc(b1-3)Gal(a1-4)Gal(b1-4)GlcNAc
Method in brief: as §1

B1: BDCA2 ex-domain (Homo sapiens) (protein)
chain: MASHHHHHHIEGRGLNDIFEAQKIEWHESLVPRGSCPTPWTSFQSSCYFISTGMQSWTKSQKNCSVMGADLVVINTREEQDFIIQNLKRNSSYFLGLSDPGGRRHWQWVDQTPYNENVTFWHSGEPNNLDERCAIINFRSSEEWGWNDIHCHVPQKSICKMKKIY
glycan array binding signal (z-score) (Gal(b1-2)Gal): 0.271 | glycan array binding signal (z-score) (Gal(b1-3)Gal): -0.235 | glycan array binding signal (z-score) (Gal(b1-3)Gal(b1-4)GlcNAc): -0.245 | glycan array binding signal (z-score) (Gal(b1-3)GalNAc): -0.157 | glycan array binding signal (z-score) [1]: -0.375 | glycan array binding signal (z-score) [2]: -0.346 | glycan array binding signal (z-score) [3]: -0.468 | glycan array binding signal (z-score) (Gal(b1-3)GlcNAc): -0.382 | glycan array binding signal (z-score) [4]: 8.6 | glycan array binding signal (z-score) [5]: -0.221 | glycan array binding signal (z-score) [6]: -0.257 | glycan array binding signal (z-score) [7]: -0.239 | glycan array binding signal (z-score) [8]: -0.249 | glycan array binding signal (z-score) [9]: -0.373 | glycan array binding signal (z-score) [10]: -0.319 | glycan array binding signal (z-score) [11]: -0.194 | glycan array binding signal (z-score) [12]: -0.038 | glycan array binding signal (z-score) [13]: -0.183 | glycan array binding signal (z-score) [14]: 0.856 | glycan array binding signal (z-score) [15]: 0.01 | glycan array binding signal (z-score) [16]: -0.178 | glycan array binding signal (z-score) [17]: -0.375 | glycan array binding signal (z-score) (Gal(b1-4)Glc): 0.453 | glycan array binding signal (z-score) (Gal(b1-4)Glc6S): -0.197 | glycan array binding signal (z-score) (Gal(b1-4)GlcNAc): -0.104 | glycan array binding signal (z-score) [18]: -0.267 | glycan array binding signal (z-score) [19]: 13.2 | glycan array binding signal (z-score) [20]: -0.024 | glycan array binding signal (z-score) [21]: -0.141 | glycan array binding signal (z-score) [22]: 0.455 | glycan array binding signal (z-score) [23]: 1.12 | glycan array binding signal (z-score) [24]: 0.128 | glycan array binding signal (z-score) [25]: -0.271 | glycan array binding signal (z-score) [26]: -0.11 | glycan array binding signal (z-score) [27]: -0.582 | glycan array binding signal (z-score) [28]: -0.387 | glycan array binding signal (z-score) [29]: -0.265 | glycan array binding signal (z-score) [30]: -0.505 | glycan array binding signal (z-score) [31]: -0.26 | glycan array binding signal (z-score) (Gal3S(b1-3)GalNAc): -0.423 | glycan array binding signal (z-score) (Gal3S(b1-3)GlcNAc): -0.181 | glycan array binding signal (z-score) [32]: -0.411 | glycan array binding signal (z-score) (Gal3S(b1-4)Glc): -0.238 | glycan array binding signal (z-score) (Gal3S(b1-4)Glc6S): -0.21 | glycan array binding signal (z-score) (Gal3S(b1-4)GlcNAc): -0.181 | glycan array binding signal (z-score) (Gal3S(b1-4)GlcNAc6S): -0.422 | glycan array binding signal (z-score) [33]: -0.316 | glycan array binding signal (z-score) (Gal3S4S(b1-4)GlcNAc): 1.81 | glycan array binding signal (z-score) (Gal3S6S(b1-4)GlcNAc): -0.278 | glycan array binding signal (z-score) (Gal3S6S(b1-4)GlcNAc6S): -0.253 | glycan array binding signal (z-score) (Gal4S(b1-4)GlcNAc): 0.395 | glycan array binding signal (z-score) (Gal4S6S(b1-4)GlcNAc): -0.342 | glycan array binding signal (z-score) (Gal6S(b1-4)Glc): -0.28 | glycan array binding signal (z-score) (Gal6S(b1-4)Glc6S): -0.203 | glycan array binding signal (z-score) (Gal6S(b1-4)GlcNAc): -0.258 | glycan array binding signal (z-score) (Gal6S(b1-4)GlcNAc6S): 0.081 | glycan array binding signal (z-score) (GalNAc(a1-3)Gal): 0.037 | glycan array binding signal (z-score) (GalNAc(a1-3)GalNAc): -0.212 | glycan array binding signal (z-score) (GalNAc(b1-3)Gal): -0.197 | glycan array binding signal (z-score) [34]: 0.776
